The supplement of paper PMC3334620
Whole data set: some 33,000 sequences, median “E-score (-0.5 to 0.5)” near -0.054, cut for the highest 2% near 0.39. The list shows a part of the results.

Each sequence was assayed against Ylr278c (UniProt Q05854) (assay: PBM E-score (8-mer binding enrichment) (E-score (-0.5 to 0.5)); higher = stronger / more preferred TF binding; most listed sequences are background and not binding sites). Settings: protein concentration: 200 nM; construct: GST-DNA-binding domain.
Summary of the method: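 E-scores (a modified Wilcoxon-Mann-Whitney statistic) were assigned by the Universal PBM Analysis Suite to every ungapped eight-base word pooled with its reverse complement. The input came from universal all-10-mer Agilent arrays made double-stranded by primer extension and probed with GST-tagged yeast transcription factors at about 100-200 nM. Fluorescent anti-GST detected bound protein, and masliner normalised the scans.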

Sequence | PBM E-score
CTTGTAAC | -0.0525
AGGTTACG | -0.14
CTCGAGTA | -0.134
CCGCAGTA | 0.0633
ACATTAGT | -0.176
GTAAGCAA | -0.0677
TACGAGGA | -0.0382
AATACTTA | -0.108
CTTTTGGC | -0.197
AATGCAAC | -0.231
ATACTTAA | -0.0506
TAATTCGA | -0.31
CTGACATC | -0.0317
ATTTCAGC | -0.131
CAGTTTAA | -0.0515
ACCTGGGA | -0.0989
AAGTGGTC | -0.012
CTGCCATC | -0.0723
GAGGTACC | 0.0243
ACCCGCTA | 0.0924
AGAAGTAA | -0.127
ATTCTGTA | -0.0732
CGACACCC | 0.0622
CGCATCTA | 0.183
CATGTCCC | -0.00532

Sequence | PBM E-score
AAATTATG | 0.00911
CCGTTAAG | -0.0625
GATCAGCC | -0.123
TGCAATAA | -0.0609
CGGATTGA | 0.247
AACGTGAC | -0.0927
CGGTAGAA | -0.0537
ATTGACGG | 0.202
AGTTTGGG | -0.00706
AGCGGATC | 0.301
AATCAGTG | -0.0844
AATGATGC | 0.0498
AGCAAAAC | -0.0521
CAGGTAAA | 0.00382
CACACCGA | 0.039
GGTTGACA | -0.1
ACATAACT | -0.0404
CATGCGAG | -0.0432
GCTGAGCC | 0.0048
AAGAAAGG | -0.276
AGCTTCAG | -0.269
AGAAAATG | -0.098
ACAGGGAT | -0.202
ATCGAAGC | -0.026
ACCAACCA | -0.0667

Sequence | PBM E-score
CAGGGACC | -0.3
CGTCGTTC | 0.137
AGCCCCAT | -0.135
CCATGGGA | -0.164
CATGAGAA | 0.0426
CCTGGGTA | -0.18
CTTCCGTC | 0.292
CCGGGGCA | 0.293
CCATTCAC | -0.042
AAAACCCT | 0.0326
CCATCTAG | -0.18
CGTTTACA | -0.113
GATACTGA | -0.0695
GCTGCTAC | -0.18
CCCATTAC | -0.195
GGGCCGAC | 0.228
ACTCGGCG | 0.256
CTTGCTAA | -0.303
ACCGTATG | -0.00992
ACCAAGAT | -0.0275
AGTGAAGG | -0.176
CCACCAAA | -0.0898
AATGTGGA | -0.0722
CATTCAGG | -0.179
ACAGGCAA | -0.209

Sequence | PBM E-score
CATAGGGC | -0.103
GACGGGTA | -0.0791
AGAGCGGC | 0.156
ATATGATC | -0.031
ATTGCCAA | -0.189
GTGAAGCA | -0.118
GCCAAAGA | -0.117
CGGTGTGA | 0.154
GAATGCGC | 0.182
ATGACTAA | -0.146
CCTGGGGA | -0.36
ACCGATGC | 0.246
CAAGAGCG | -0.104
GTAGACAC | 0.0464
TCAAACCA | 0.125
CACTCTAC | -0.104
ACCAGCAG | -0.361
CGGTGGTC | 0.191
ACATTCAT | 0.0396
AGCCAGGA | -0.173
ATCGGGCA | 0.0485
GGCTCACC | -0.111
TGCAACAA | -0.131
GTATTAGA | -0.0651
GCGGAGCC | 0.394

Sequence | PBM E-score
ATAAGATG | -0.193
ATACCACC | 0.042
CATGCTAG | -0.256
CATATGTC | -0.0724
CTCTATCC | -0.094
CTTGCTCC | 0.173
GTCGACTA | 0.00622
GGTTCTAC | -0.0143
AATTCAAG | -0.119
ACTTGGGA | -0.066
GCTCAAAA | -0.0485
CTCATGCA | -0.147
TTATTAAA | 0.0354
GGCATGCC | 0.153
ATTTTCTC | 0.131
AGTAGCCA | -0.271
AGATTCGA | -0.11
AAAGACCT | -0.0813
GATTGATA | -0.196
CATGCTGC | -0.0378
CTGATAGA | 0.0139
CCCTTATA | -0.0646
AAGGAAAG | -0.0889
CTCAAGTC | -0.225
AACGGGGC | 0.147

Sequence | PBM E-score
CTTGTGAA | -0.156
AACGTCAA | -0.163
AATATGGT | 0.105
ATAGGACC | 0.048
AAACGCCA | 0.0115
CGTAGTCC | 0.1
AAGGTGCA | -0.166
GATGGGCA | -0.183
CAAGTCAA | -0.222
ACAGTCCA | -0.198
TAATGCTA | -0.0119
GGTTCCTA | -0.108
ACAAGAGG | -0.0463
CAACCATG | -0.0437
AGCTTGAG | 0.105
CCGCGGCA | 0.381
GTGGCTCA | -0.167
ATCTCCAG | -0.0917
CGCTTCCC | 0.153
AAAATCTG | -0.0672
TAGTAGCA | -0.0836
AAAGCACC | -0.114
ATCTGTGA | 0.00308
CGTATGAG | -0.039
AGAGTTCG | -0.0185

Sequence | PBM E-score
GTGACGTA | -0.142
AGTTCCAG | -0.0676
CGTAAGGA | -0.265
ATCGATGA | -0.164
CCTCTCCC | -0.153
ACCTACGA | -0.23
CCAGTCGC | 0.0422
AGTGCCGC | 0.0939
CAGGCCTA | -0.144
CCTCAGAA | -0.263
CACTGATA | -0.288
GATGGGAA | -0.166
CGCCCCGA | 0.35
AGGTTAAG | -0.259
CCCCAACA | -0.0695
CCTGAAGG | -0.206
GCACAAAC | -0.00707
CGGTAACG | 0.126
GGCGAGCC | 0.0265
CGGCCTAA | 0.174
CTAGCGAA | -0.291
AGATGAAA | -0.0311
